According to ChEMBL document CHEMBL4888484, “Replenishing the malaria drug discovery pipeline: Screening and hit evaluation of the MMV Hit Generation Library 1 (HGL1) against asexual blood stage Plasmodium falciparum ,using a nano luciferase reporter read-out” (2022):
In all, about 150,000 compounds went through this assay and about 540 (0.36%) showed an effect of 50% or more. This is one part of the list.

Test system: Plasmodium falciparum
Assay: Primary screen in NF54 nanoGlo assay, in single point, at 2uM, 72h; a lower Z score goes with more inhibition
Assay type: functional, Erythrocyte
Conditions: timepoint 72 hour

SMILES	% Inhibition	Z score
c1cc(CN2C[C@@H]3CC[C@H]2CN(C2CCOCC2)C3)c2cccnc2c1	-19%	1.72
CC(C)(C)c1ccn(C2(C(=O)O)CCN(C(=O)c3ccoc3)CC2)n1	-27%	2.34
O=C(NCCNC(=O)c1ccco1)c1csc(-c2ccco2)n1	25%	-3.43
CC(C)(C)c1nc(CNc2[nH]ncc2C(N)=O)cs1	11%	-1.42
CN1CCN([C@H]2CCN(c3ccc(C(F)(F)F)cn3)C[C@H]2CCCO)CC1	-6%	0.82
Cc1cc2c(cc1C(=O)N1CCO[C@H]3CCCC[C@@H]31)OCCO2	2%	-0.23
O=C(NCCc1ccncc1)c1cnc2c(Cl)cccc2c1O	-10%	1.85
Cc1sccc1C(=O)NCC(F)F	5%	-0.73
CCOc1ccc(NC(=O)N2CCC(n3cnc4c(Cl)cccc4c3=O)CC2)cc1	-4%	0.41
Cc1cccc([C@H]2c3cc(OCC(=O)NCc4ccccn4)ccc3CCN2C(=O)c2ccccc2)c1	5%	-0.58
Cc1cnc(NC(=O)c2ccccc2-c2ccccc2)s1	4%	-0.75
CCCC[C@H](CC)C(=O)Nc1cc(C)ccn1	32%	-4.18
Oc1ccc(Cl)cc1-c1cc(-c2ccc(Cl)cc2)cc(-c2ccccc2)n1	-18%	1.95
CCc1nnc2ccc(N3CCC4(CCCCC4)C3)nn12	12%	-1
COc1ccc(-n2cc([C@H](C)Nc3nc(C)nc4c3c(C)nn4C)cn2)cc1	-8%	1
Cc1ccc(CNC(=O)[C@H]2CCCN(S(=O)(=O)c3ccccc3)CCc3nnc(-c4cccnc4)n3CC2)o1	-2%	0.3
CCN(CC)C(=O)CN1CCCN(c2nc(CN3CCC(C)CC3)nc3sc(C)c(C)c23)CC1	2%	-0.21
C[C@@H](C(=O)NC1CCCC1)N1CCN(CC2CCC(c3ccccc3)CC2)CC1 (stereo partly specified)	-10%	1.66
CCc1nc2c(c(=O)[nH]1)C[C@H]1CC[C@@H](C2)N1C(=O)CCS(=O)(=O)c1ccccc1	8%	-1.16
CCOc1cc(Cl)ccc1C(=O)OCc1nnc(C)n1C	-9%	1.21
O=C(NC1CC1)[C@@H]1CCCN1c1ccncc1Cl	-10%	0.99
CC(=O)N1CCC[C@H](c2[nH]ccc2C(=O)Nc2ccc(OC(F)(F)F)cc2)C1	-16%	2.04

SMILES	% Inhibition	Z score
Cc1ccc(S(=O)(=O)Nc2nc3c(s2)COCC3)cc1C	-7%	0.96
c1ccc2c(c1)CCC(NC[C@@H]1CCCN1)CC2	5%	-1.09
Cc1ccc(CNC(=O)Cn2cncc(C(=O)NC3CCCC3)c2=O)cc1	3%	-0.53
Cc1cnc(-c2ccccc2)n1C1CN(C(=O)CC(C)C)C1	1%	-0.11
O=C(c1nc(-c2csc(S(=O)(=O)N3CCCCC3)c2)no1)N1CCCC1	-4%	0.51
Cc1cccc(NC(=O)c2ccc(C)nc2C2CCN(C(=O)COc3ccc(Cl)cc3)CC2)c1	-12%	2.24
Cc1occc1C(=O)Nc1ccc(F)cc1NC1CC1	10%	-1.97
O=C(COc1ccccc1)Nc1ccc(-c2ccccn2)cn1	-9%	1.22
Cn1cc(C(=O)N2CC[C@H](O)CC23CCC3)c2ccccc21	-3%	0.43
CC(C)(CN1CCCCC1)NC(=O)c1csc(N)n1	-10%	1.8
CCN(CC)C(=O)[C@@H]1C[C@H](NC(=O)Cc2cccnc2)CN1C1CCCC1	-14%	1.32
COc1ccc(Cl)cc1[C@H](C)NCc1ncnn1C	-11%	1.59
O=C(O)Cc1ccccc1CN1CCOCC1CC1CCCO1 (stereo unspecified)	-16%	2.59
Cc1cc2c(cc1S(=O)(=O)N1CCC[C@H](C(=O)NC3CCCC3)C1)OCC(=O)N2	-3%	0.3
O=C(NC[C@H]1CCN(C2CCCCC2)C1)c1cc(O)ccc1F	-19%	2
CCNc1ncc(CN2CCC(C(=O)N3CCCC3)CC2)cn1	-18%	2.4
COCCOc1ccc(-c2cccc3c(N)ccnc23)cc1	-11%	1.22
CCc1csc(NC(=O)NC(C)C2CCCO2)n1 (stereo unspecified)	-3%	0.23
Cc1nc(CNC(=O)N2CCOCC2)cs1	-6%	0.8
COc1ccccc1C1=NS(=O)(=O)N(C)C(C(=O)N2CCCC2)=C1	-18%	3.52
CCc1noc(Cn2c(=O)ccn(Cc3cccc(Br)c3)c2=O)n1	-5%	0.73
